Data as given in the BET-seq Pho4 binding data (Le et al. 2018).
Some of the results follow. Values were computed here from the reads of four pooled replicates and scatter widely.

Target: T1, Pho4 (S. cerevisiae) (UniProt P07270)
T1 sequence: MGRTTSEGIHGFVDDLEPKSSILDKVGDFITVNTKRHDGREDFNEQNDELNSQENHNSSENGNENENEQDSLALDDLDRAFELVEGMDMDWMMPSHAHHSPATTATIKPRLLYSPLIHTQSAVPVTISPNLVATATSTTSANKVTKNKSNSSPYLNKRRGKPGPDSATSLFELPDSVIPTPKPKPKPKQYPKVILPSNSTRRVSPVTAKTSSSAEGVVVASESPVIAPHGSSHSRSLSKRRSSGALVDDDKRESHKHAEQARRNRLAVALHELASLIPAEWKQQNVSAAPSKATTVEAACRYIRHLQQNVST
Assay: relative binding free energy (BET-seq); higher = weaker binding
Settings: reference: library average

Sequence | relative binding free energy
TTTAGCACGTGTCTTA | -0.09 kcal/mol
AGGGTCACGTGAGGCC | 0.31 kcal/mol
TATGTCACGTGATAGG | 0.2 kcal/mol
TAAAGCACGTGATGTG | 0.05 kcal/mol
CAGGTCACGTGGTAAT | 0.14 kcal/mol
TATATCACGTGTTATT | 0.2 kcal/mol
GGTAACACGTGAAAGG | 0.39 kcal/mol
CATTGCACGTGAGGGC | 0.23 kcal/mol
TGTTTCACGTGGGGAC | 0.25 kcal/mol
GTGGGCACGTGCATTG | -0.09 kcal/mol
AAGCGCACGTGTGGCG | 0.09 kcal/mol
ATTCGCACGTGTGTAG | -0.02 kcal/mol
CGGTTCACGTGGCATG | 0.16 kcal/mol
ATTATCACGTGTAAGG | 0.09 kcal/mol
TCAGTCACGTGTTGAG | 0.08 kcal/mol
AGTAGCACGTGATGGT | 0.1 kcal/mol
TATGACACGTGATATA | 0.2 kcal/mol
TATTGCACGTGTAAAT | 0.06 kcal/mol
GGCGTCACGTGGGCTT | 0.03 kcal/mol
GGGATCACGTGTTCAT | 0.3 kcal/mol
TGTTGCACGTGCGATA | 0.02 kcal/mol
GATATCACGTGTTGGT | 0.2 kcal/mol
GGAGACACGTGCGTTG | 0.1 kcal/mol
AGTGTCACGTGAGTGT | 0.26 kcal/mol
TTGGACACGTGCGTCG | 0.03 kcal/mol
AGGGTCACGTGCCTGT | 0.09 kcal/mol

Sequence | relative binding free energy
TGTGTCACGTGGGACA | -0.06 kcal/mol
ACTGTCACGTGTGTGG | 0.1 kcal/mol
AGGGACACGTGCCGTG | -0.01 kcal/mol
CGGCTCACGTGGAGGA | 0.33 kcal/mol
GATCACACGTGGGTTG | -0.06 kcal/mol
TTTTGCACGTGATGCG | -0.01 kcal/mol
CATTTCACGTGTAGAG | 0.12 kcal/mol
TTGATCACGTGTTAGT | 0.13 kcal/mol
AGACGCACGTGTGGGA | -0.01 kcal/mol
TTCGTCACGTGAGTGG | 0.32 kcal/mol
TGGCGCACGTGTATGA | -0.12 kcal/mol
AAGATCACGTGGCGTG | 0.03 kcal/mol
ATTGGCACGTGTGATT | -0.13 kcal/mol
TCTTACACGTGGTTGG | 0.08 kcal/mol
AGTGTCACGTGACGTT | 0.35 kcal/mol
TACTACACGTGTGTGA | 0.23 kcal/mol
GTTGTCACGTGTATGT | 0.07 kcal/mol
CTTTACACGTGGTGTG | 0.01 kcal/mol
TTACTCACGTGATAGG | 0.26 kcal/mol
GCGGACACGTGTGGTA | 0.22 kcal/mol
GCTGTCACGTGGTGAG | 0.21 kcal/mol
TAAGTCACGTGTGTCA | -0.02 kcal/mol
TTCGGCACGTGTGGTG | -0.06 kcal/mol
AGGCGCACGTGGTCGT | -0.14 kcal/mol
GCAGTCACGTGTTATG | 0.18 kcal/mol
GAAAGCACGTGGTGGC | -0.08 kcal/mol

Sequence | relative binding free energy
GGTCTCACGTGTGTGT | 0.3 kcal/mol
AATGACACGTGAGTGT | 0.22 kcal/mol
TTGGTCACGTGTGCGA | 0.1 kcal/mol
AGTAACACGTGGGTGT | -0.15 kcal/mol
GGATACACGTGAGGTA | 0.22 kcal/mol
GTTCTCACGTGAGTGA | 0.27 kcal/mol
CGATGCACGTGTTTTG | 0.04 kcal/mol
TGTTACACGTGGATTA | 0.11 kcal/mol
CGTATCACGTGTGGAA | 0.21 kcal/mol
GTTTTCACGTGAGTAA | 0.46 kcal/mol
ATTGCCACGTGAGTTT | 0.11 kcal/mol
GCGTGCACGTGGGGCT | -0.17 kcal/mol
GAGTTCACGTGAATTG | 0.47 kcal/mol
GGGGACACGTGGCTTA | 0.01 kcal/mol
GATATCACGTGGTCGT | 0.03 kcal/mol
GAGATCACGTGTCGGT | 0.32 kcal/mol
AAATACACGTGGGGGC | 0.05 kcal/mol
GGTGACACGTGTAGGC | 0.15 kcal/mol
GGTGTCACGTGAGTTT | 0.38 kcal/mol
TTAGCCACGTGGATTG | -0.06 kcal/mol
CGGTGCACGTGTGGTG | 0.02 kcal/mol
GGTGTCACGTGATTAA | 0.23 kcal/mol
TTTCACACGTGTGGGT | 0.16 kcal/mol
GGGTACACGTGCGATG | -0.06 kcal/mol
GCTGACACGTGGGGAG | 0.03 kcal/mol
GTGGGCACGTGCAGCG | -0.27 kcal/mol

Sequence | relative binding free energy
TCAGACACGTGGGGTT | -0.12 kcal/mol
TCTGCCACGTGGTGTG | -0.13 kcal/mol
AAGTTCACGTGAAAAG | 0.62 kcal/mol
CTTGTCACGTGGTAAT | 0.11 kcal/mol
GTAGACACGTGTGGTC | 0.05 kcal/mol
TAAAACACGTGTTGTA | 0 kcal/mol
TGGAGCACGTGTTGAA | 0.05 kcal/mol
GTGCGCACGTGTCTGT | -0.16 kcal/mol
GAGGGCACGTGCTGTT | 0.07 kcal/mol
TGGTGCACGTGTCGGG | 0.02 kcal/mol
TGAAACACGTGTATTT | 0.06 kcal/mol
TGGAACACGTGGATTG | 0.08 kcal/mol
TTTATCACGTGGTCTC | 0.09 kcal/mol
TTGGGCACGTGCTAGA | -0.06 kcal/mol
AGGTTCACGTGTGGCC | 0.39 kcal/mol
GTTTGCACGTGCGACG | 0.05 kcal/mol
ATTTACACGTGGTCGG | -0.07 kcal/mol
AAAAGCACGTGAGGTA | 0.19 kcal/mol
CCTGGCACGTGTCGTG | 0.09 kcal/mol
TTCGTCACGTGATGTT | 0.12 kcal/mol
TTGATCACGTGGGCAG | -0.12 kcal/mol
GTTACCACGTGTCGGG | -0.04 kcal/mol
TGTTTCACGTGGTATA | 0.16 kcal/mol
GGTAGCACGTGGTGTA | -0.13 kcal/mol
ATCTTCACGTGTTAGG | 0.2 kcal/mol
GCAGGCACGTGGTAGA | -0.04 kcal/mol

Sequence | relative binding free energy
ATTTTCACGTGTGGTA | 0.23 kcal/mol
AGAGCCACGTGGCGTG | -0.08 kcal/mol
GTAGTCACGTGGTGTG | 0.16 kcal/mol
TGCTTCACGTGTCGGT | 0.23 kcal/mol
TAGTGCACGTGAAGTT | 0.33 kcal/mol
TTGAACACGTGGTGAT | -0.06 kcal/mol
CATGCCACGTGGTTGT | -0.08 kcal/mol
TGGAACACGTGCTTTG | -0.05 kcal/mol
AGTTGCACGTGATATG | 0.05 kcal/mol
TATATCACGTGGGGCT | -0.01 kcal/mol
TGCTTCACGTGGGCGG | 0.06 kcal/mol
ATTGACACGTGGATTA | 0.03 kcal/mol
TTCAGCACGTGGGATT | -0.18 kcal/mol
AGGGTCACGTGGAGCC | 0.17 kcal/mol
TCTGTCACGTGTGTAT | -0.03 kcal/mol
TGTAGCACGTGCATGT | -0.16 kcal/mol
TGAAACACGTGTAGTA | 0.09 kcal/mol
TTAGGCACGTGGAGAA | -0.12 kcal/mol
AGAGTCACGTGTCTTT | 0.15 kcal/mol
TATGACACGTGTGTTT | -0.02 kcal/mol
GTGTACACGTGCAGGG | -0.07 kcal/mol
ATGAGCACGTGGGACT | -0.09 kcal/mol
TAATGCACGTGCGTTG | -0.04 kcal/mol
GTGATCACGTGGGAGC | 0.09 kcal/mol
ATCGACACGTGTGGAG | 0.1 kcal/mol
TAGATCACGTGGTGGC | 0.15 kcal/mol

Sequence | relative binding free energy
CTATGCACGTGTTGTT | -0.15 kcal/mol
TGGGTCACGTGAGCGT | 0.26 kcal/mol
TAAACCACGTGGGGGT | -0.18 kcal/mol
TCCTGCACGTGGGTAG | -0.12 kcal/mol
TCTTACACGTGATGGT | 0.17 kcal/mol
TTTGTCACGTGCTGCA | -0.08 kcal/mol
TGTTTCACGTGGGTGA | 0.21 kcal/mol
TTTAGCACGTGGGCTA | -0.27 kcal/mol
TGTCGCACGTGAGTTA | 0.13 kcal/mol
TGAATCACGTGTGCAT | 0.15 kcal/mol
GTGAACACGTGCATGT | 0.08 kcal/mol
AATGGCACGTGGGGGT | -0.16 kcal/mol
CTTTTCACGTGTGTGC | 0.22 kcal/mol
GGTTTCACGTGCTTGT | 0.27 kcal/mol
AGAAGCACGTGTTGTA | -0.15 kcal/mol
GGTGCCACGTGTTGTC | -0.02 kcal/mol
TGGGGCACGTGTGCTT | -0.07 kcal/mol
TGCGGCACGTGGAGAG | -0.13 kcal/mol
AGTGGCACGTGTGCAT | -0.05 kcal/mol
AGGCTCACGTGGTGCG | 0.18 kcal/mol
TCTTTCACGTGCTAGT | 0.24 kcal/mol
CTCGGCACGTGTGGGG | -0.12 kcal/mol
ATGTTCACGTGGTGAG | 0.22 kcal/mol
GGTAGCACGTGATTGT | 0.23 kcal/mol
GAGTTCACGTGGATGT | 0.32 kcal/mol
ATAAGCACGTGGAGTG | -0.19 kcal/mol

Sequence | relative binding free energy
ACGGTCACGTGGGGAT | -0.01 kcal/mol
TAGTTCACGTGGGAAG | 0.32 kcal/mol
ACGGGCACGTGGCGTA | -0.19 kcal/mol
ATGGTCACGTGGGATC | 0.05 kcal/mol
TTATGCACGTGGGGCC | -0.23 kcal/mol
GTAGGCACGTGGTAAT | -0.19 kcal/mol
TTTTGCACGTGGCTGC | 0.01 kcal/mol
GGTGACACGTGCCTGG | -0.01 kcal/mol
CTGCGCACGTGTTTGG | -0.03 kcal/mol
ACTTTCACGTGTTCGG | 0.24 kcal/mol
TCATGCACGTGTGTTT | 0 kcal/mol
AATTGCACGTGAGGTT | 0.22 kcal/mol
GTCAACACGTGGTTGT | -0.02 kcal/mol
TATTGCACGTGTTAAA | 0 kcal/mol
GTATTCACGTGTCGTA | 0.41 kcal/mol
TAAAACACGTGGGAGT | -0.12 kcal/mol
ATCGGCACGTGTTAGT | 0 kcal/mol
TGATACACGTGGGACT | 0.06 kcal/mol
ATGTGCACGTGGGAGA | -0.3 kcal/mol
AGTTACACGTGAGAGT | 0.27 kcal/mol
TAGCGCACGTGGGTAG | -0.31 kcal/mol
ATATGCACGTGTAGCG | -0.02 kcal/mol
GATTGCACGTGATGGG | 0.2 kcal/mol
CGATGCACGTGCTGGT | -0.01 kcal/mol
GATTGCACGTGGTTTT | 0.09 kcal/mol
GGGTTCACGTGGCATT | 0.2 kcal/mol

Sequence | relative binding free energy
TATTTCACGTGGCATG | 0.2 kcal/mol
GGTGACACGTGGGGAC | -0.02 kcal/mol
ATCTGCACGTGTATGA | 0.14 kcal/mol
AGGTGCACGTGCATGA | -0.11 kcal/mol
TGGGTCACGTGTTCTT | 0.03 kcal/mol
TGATGCACGTGCGCGG | -0.19 kcal/mol
TTGGACACGTGTTCGA | 0.06 kcal/mol
AGGGTCACGTGATGTT | 0.21 kcal/mol
TGGGCCACGTGGCAAG | -0.16 kcal/mol
CTGGGCACGTGTAGTA | -0.06 kcal/mol
AATGGCACGTGGCGTA | -0.31 kcal/mol
TATACCACGTGCAGGG | 0.1 kcal/mol
GCTTTCACGTGGTGAT | 0.28 kcal/mol
GTGTGCACGTGATGGC | 0.12 kcal/mol
CGTTCCACGTGTGTTG | -0.01 kcal/mol
TTTTTCACGTGAATGT | 0.45 kcal/mol
TAGTTCACGTGGGGCT | 0.19 kcal/mol
TACGGCACGTGGGTGG | -0.19 kcal/mol
TGTGGCACGTGCGCTA | -0.23 kcal/mol
CGTGTCACGTGCAGTG | -0.03 kcal/mol
TGGCCCACGTGTGGTG | -0.21 kcal/mol
AGGAGCACGTGGAATT | 0.11 kcal/mol
TGTTTCACGTGTCGGG | 0.25 kcal/mol
TCAGGCACGTGCCGGG | -0.2 kcal/mol
ATTTGCACGTGGAGGA | 0.03 kcal/mol
TTTGTCACGTGAGTTA | 0.28 kcal/mol

Sequence | relative binding free energy
TTGGGCACGTGCCGTA | -0.2 kcal/mol
ATGGGCACGTGAGCAT | 0 kcal/mol
TTAAGCACGTGGAAAG | -0.01 kcal/mol
AAACGCACGTGTGGAG | 0.06 kcal/mol
TTGTGCACGTGTGTGC | -0.03 kcal/mol
GTGCGCACGTGTTTTT | -0.01 kcal/mol
ATGCACACGTGTAGGG | 0.25 kcal/mol
CGGGACACGTGAGTAG | 0.2 kcal/mol
TTTCTCACGTGCTCGG | 0.31 kcal/mol
AGTGGCACGTGGATGG | 0 kcal/mol
TCCGGCACGTGTGGTG | -0.08 kcal/mol
CGGGTCACGTGTCTTG | 0.13 kcal/mol
GAGTGCACGTGGCTTT | -0.07 kcal/mol
ACCGGCACGTGGGGGG | -0.27 kcal/mol
TCGGCCACGTGGTTTG | -0.15 kcal/mol
ATCTTCACGTGGTTTT | 0.34 kcal/mol
TAAGTCACGTGGTCGT | -0.02 kcal/mol
AGCTACACGTGTTTGT | 0.1 kcal/mol
TGTCTCACGTGATGAT | 0.43 kcal/mol
GGGTACACGTGGGGTT | 0.09 kcal/mol
ATGAGCACGTGTCGGG | -0.02 kcal/mol
GTTGTCACGTGATATT | 0.22 kcal/mol
